# Data: PubChem BioAssay AID1347073 (National Center for Advancing Translational Sciences (NCATS), 2019)
# The campaign covered roughly 45,000 compounds. About 200 (0.44%) were called active. About 7% were inconclusive and are not listed. Calls come from the whole dose curve; as a rule, active = well fitted activation curve with a large enough effect; inconclusive = small, poorly fitted or top-dose-only effect; inactive = no such curve, though single readings can be large or run the other way. Some of the results follow.
# Experiment: qHTS of TDP-43 Inhibitors: NCGC Sytravon Library Screen; note: 0% is about no effect; nearly all actives have a fitted effect of over 55% in size
# Conditions: yeast TDP-43 toxicity rescue, BacTiter-Glo growth, 24 h; series mostly up to 46.1 µM; growth rescue (activation): at the top concentration
# Procedure, shortened: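 TDP-43-expressing yeast, pregrown in raffinose, seeded at OD600 0.02 in galactose medium with compound for 24 hr at 30 deg C. Growth read by BacTiter-Glo luminescence, so rescue of toxicity appears as activation.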
row,SMILES,growth rescue (activation)
1,COc1ccc(S(=O)(=O)NCC(c2cccnc2)N2CCN(c3ccccc3OC)CC2)cc1C (configuration not stated),inactive: -3.68%
2,O=C1/C(=C\c2c(NCCOCCO)nc3ccccn3c2=O)SC(=S)N1Cc1ccco1,inactive: 11.8%
3,C[C@]12CCC(=O)C=C1CCC1C2CC[C@@]2(C)C1CCC21OCCO1 (some centres not stated),inactive: 19%
4,CC(=O)c1ccc(S(=O)(=O)N(CCCO)Cc2cc3cc4c(cc3[nH]c2=O)OCCO4)cc1,inactive: -20.9%
5,COc1ccc(/C=N/NC(=O)c2sccc2OCc2ccc(F)cc2)cc1OC,inactive: 11.8%
6,CCOC(=O)COn1c(=O)c(-c2ccc(OC)cc2)[n+]([O-])c2ccccc21,inactive: 0.0965%
7,CCOC(=O)C1=C(c2ccccc2)OC(N)=C(C#N)C1c1ccc(Br)s1 (configuration not stated),inactive: -2.53%
8,Cc1ccc(-c2csc(NC(=O)c3ccc(Br)cc3)c2C(=O)O)cc1,inactive: -38.2%
9,COc1ccc(N2CCOCC2)c(NC(=O)COc2cccc(C)c2)c1,inactive: 19.5%
10,COc1ccccc1N(CC(=O)NCc1ccc(F)cc1)C(=O)CCC(=O)Nc1nccs1,inactive: -12.1%
11,Cc1ccc(-c2ccc(/C=N/n3cnnc3)o2)cc1,inactive: -5.76%
12,COc1ccccc1C(=O)Nc1ccc(NC(=O)C2CCCCC2)nc1,inactive: -0.124%
13,CCN1C(=O)c2cccc3c(S(=O)(=O)Nc4ccccc4O)ccc1c23,inactive: 10.8%
14,CC1CCCCC12NC(=O)N(CC(=O)OCC(=O)Nc1ccc(F)cc1[N+](=O)[O-])C2=O (configuration not stated),inactive: -1.05%
15,CCOc1cc(C(C(=O)NCC2CCCO2)N(C(=O)Cn2nnc3ccccc32)c2ccccc2C)ccc1O (configuration not stated),inactive: 5.04%
16,CN1CCN(c2oc(/C=C/c3ccc(F)cc3)nc2C#N)CC1,inactive: 1.58%
17,Cc1nn(Cc2ccccc2)c(C)c1NC(=O)CSc1nc2c(c(C(F)(F)F)n1)CCc1ccccc1-2,inactive: 16.6%
18,COc1ccc(C2=NO[C@@H]3C(=O)N(Cc4ccccc4)C(=O)[C@H]23)c(OC)c1,inactive: 27.9%
19,CC(C)Cn1c(N)c(C(=O)CSc2ncnc3sc4c(c23)CCCC4)c(=O)n(C)c1=O,inactive: 14.8%
20,CCn1nc(NC(C)=O)c2cc3ccc(C)cc3nc21,inactive: -3.2%
21,NC(=O)C1CCN(C(=O)c2cccc(CN3C(=O)c4ccccc4C3=O)c2)CC1,inactive: -0.0227%
22,COc1ccccc1C/C(N)=N/O,inactive: 11.1%
23,CC1(C(=O)Nc2ccc(S(=O)(=O)Nc3ncccn3)cc2)CCCC1,inactive: 7.19%
24,CCCOc1ccc(F)cc1-c1cc(C(=O)NCCOC)[nH]n1,inactive: 13.4%
25,CCOc1ccccc1NC(=O)CN1CCC(C(=O)c2ccc(OC)cc2)CC1,inactive: 5.48%
26,COC(=O)c1ccc(C(=O)OC)c(NC(=O)CN(C)Cc2ccccc2)c1,inactive: 4.02%

row,SMILES,growth rescue (activation)
1,COCCNC(=O)C1(C)CCCN(Cc2ccc(-c3ccccc3)o2)C1 (configuration not stated),inactive: 9.58%
2,O=C(CCNc1n[nH]c(=O)[nH]c1=O)N/N=C/c1ccc(C(F)(F)F)cc1,inactive: -0.253%
3,CCc1ccccc1NC(=O)c1ccc(NS(C)(=O)=O)cc1,inactive: -8.01%
4,COc1ccc(C(C(=O)NCC2CCCO2)N(C(=O)Cn2nnc3ccccc32)c2ccc(NC(C)=O)cc2)c(OC)c1 (configuration not stated),inactive: 3.1%
5,CS(=O)(=O)NN1C(=O)c2ccccc2NC12CCCC2,inactive: 5.25%
6,Brc1ccc(C=Nc2ccc(Nc3ccccc3)cc2)s1,inactive: 2.49%
7,O=C(Nc1cc(=O)[nH]c2nc(-c3ccc(Cl)cc3)nn12)c1ccccc1,inactive: 29.7%
8,CCN(CC)S(=O)(=O)c1cc(NC(=O)COc2ccc(C#N)cc2OC)ccc1C,inactive: 26.4%
9,COc1ccc(C(=O)NC(C)CCn2cccn2)cc1OC1CCN(C(C)C)CC1 (configuration not stated),inactive: 17.8%
10,OC(COC(c1ccccc1)c1ccccc1)CN1CCN(c2ccccn2)CC1 (configuration not stated),inactive: -2.95%
11,NC(=O)C1CCCN(C(=O)CCCNC(=O)c2ccc(Cl)cc2)C1 (configuration not stated),inactive: -3.02%
12,CCc1ccc(N/C(N)=N/c2nc(CSc3ccccn3)cc(=O)[nH]2)cc1,inactive: 10.8%
13,COc1cc(CCC(=O)OCC(=O)Nc2ccc(Br)cc2F)cc(OC)c1OC,inactive: -30.3%
14,CCN(C1CCS(=O)(=O)C1)S(=O)(=O)c1cccc([N+](=O)[O-])c1 (configuration not stated),inactive: -9.86%
15,COc1ccc(S(=O)(=O)N2CCOCC2)cc1NC(=O)Cc1ccc(Cl)c(Cl)c1,inactive: 16.4%
16,O=C(NCCc1ccccn1)c1cc(-c2ccc(Cl)cc2)nc2ccccc12,inactive: 16.2%
17,O=C(COC(=O)c1ccco1)Nc1cccc(Br)c1,inactive: 9.63%
18,CCOc1ccccc1NC(=O)COC(=O)c1ccc(S(=O)(=O)N2CCCC2)cc1,inactive: 21.2%
19,O=C(N/N=C/c1ccc(O)cc1)c1cccc(C(F)(F)F)c1,inactive: 18.5%
20,COc1ccc(S(=O)(=O)N(C)C)cc1NC(=O)Cc1c[nH]c2ccccc12,inactive: -21%
21,CC(Cc1ccccc1)NC(=O)c1cc2ccccc2o1 (configuration not stated),inactive: 6.07%
22,CCCCOc1ccc(C(=O)N2CCNC(=O)C2)cc1,inactive: 10.3%
23,NCCCCCC(=O)Nc1ccncc1,inactive: 0.35%
24,S=C(NCc1ccco1)N1CCN(c2ccccc2Cl)CC1,inactive: 30.5%
25,CC(C)(C)NCc1cc(Br)ccc1OCc1cccs1,inactive: 6.23%
26,CN(NS(=O)(=O)c1ccc(Cl)cc1)c1nc(C(F)(F)F)nc2ccccc12,inactive: -16.6%
